From the supplement of paper PMC4967469
Lines with a small IC50 respond at low doses; fits outside the tested doses are given as limits. AUC sums up the same curve from the lowest dose to the 256-fold higher top dose; the more sensitive the line, the further below 1. Any top dose called inferred was derived from the fitted curves, not read from the paper.

Compound: CCOc1cc2ncc(C#N)c(Nc3ccc(F)c(Cl)c3)c2cc1NC(=O)/C=C/CN(C)C [EKB-569]
Assay: Viability of human cancer cell lines after 72 h of drug (GDSC screen)
Conditions: top dose inferred
Description: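 Human cancer cell lines in 384-well plates, medium with 10% serum, drug for 72 h over a 256-fold dose range (nine 2-fold or five 4-fold steps up to the top dose). Adherent lines were fixed and stained with the nucleic acid dye Syto60, suspension lines read with resazurin; signal relative to control wells, capped at 0 and 100%. One two-parameter sigmoid per drug and line, fitted in a mixed model over all curves with the slope shared within a line.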

| Cell Line | AUC | IC50 [nM] |
| --- | --- | --- |
| OCI-AML3 (acute myeloid leukaemia, suspension, top dose 2.5 µM) | 0.743 | 686 |
| OCI-AML5 (acute myeloid leukaemia, suspension, top dose 2.5 µM) | 0.794 | 1040 |
| OCI-LY-19 (B-cell lymphoma, suspension, top dose 2.5 µM) | 0.569 | 238 |
| OCI-M1 (acute myeloid leukaemia, suspension, top dose 2.5 µM) | 0.837 | 1140 |
| OCUB-M (breast, adherent, top dose 2.5 µM) | 0.349 | 63.5 |
| OCUM-1 (stomach, adherent, top dose 2.5 µM) | 0.981 | > 2500 |
| OE19 (oesophagus, adherent, top dose 2.5 µM) | 0.839 | 2040 |
| OE21 (oesophagus, adherent, top dose 2.5 µM) | 0.959 | > 2500 |
| OE33 (oesophagus, adherent, top dose 2.5 µM) | 0.963 | > 2500 |
| OMC-1 (cervix, adherent, top dose 2.5 µM) | 0.85 | 2040 |
| ONS-76 (medulloblastoma, adherent, top dose 2.5 µM) | 0.791 | 1220 |
| OPM-2 (myeloma, suspension, top dose 2.5 µM) | 0.835 | 1230 |
| OS-RC-2 (kidney, adherent, top dose 2.5 µM) | 0.867 | > 2500 |
| OSC-19 (head and neck, adherent, top dose 2.5 µM) | 0.866 | 2400 |
| OSC-20 (head and neck, adherent, top dose 2.5 µM) | 0.861 | > 2500 |
| OV-7 (ovary, adherent, top dose 2.5 µM) | 0.934 | > 2500 |
| OV-17R (ovary, adherent, top dose 2.5 µM) | 0.931 | > 2500 |
| OV-56 (ovary, adherent, top dose 2.5 µM) | 0.985 | > 2500 |
| OV-90 (ovary, adherent, top dose 2.5 µM) | 0.968 | > 2500 |
| OVCA420 (ovary, adherent, top dose 2.5 µM) | 0.957 | > 2500 |
| OVCA433 (ovary, adherent, top dose 2.5 µM) | 0.968 | > 2500 |

| Cell Line | AUC | IC50 [nM] |
| --- | --- | --- |
| OVCAR-3 (ovary, adherent, top dose 2.5 µM) | 0.985 | > 2500 |
| OVCAR-4 (ovary, adherent, top dose 2.5 µM) | 0.824 | > 2500 |
| OVCAR-5 (ovary, adherent, top dose 2.5 µM) | 0.868 | > 2500 |
| OVCAR-8 (ovary, adherent, top dose 2.5 µM) | 0.92 | > 2500 |
| OVISE (ovary, adherent, top dose 2.5 µM) | 0.632 | 410 |
| OVK-18 (ovary, adherent, top dose 2.5 µM) | 0.963 | > 2500 |
| OVKATE (ovary, adherent, top dose 2.5 µM) | 0.947 | > 2500 |
| OVMIU (ovary, adherent, top dose 2.5 µM) | 0.379 | 66.6 |
| OVTOKO (ovary, adherent, top dose 2.5 µM) | 0.826 | 2110 |
| P12-ICHIKAWA (T-cell lymphoblastic leukaemia, suspension, top dose 20 µM) | 0.45 | 940 |
| P30-OHK (lymphoblastic leukaemia, suspension, top dose 2.5 µM) | 0.428 | 103 |
| P31-FUJ (acute myeloid leukaemia, suspension, top dose 2.5 µM) | 0.971 | > 2500 |
| P32-ISH (Burkitt lymphoma, suspension, top dose 2.5 µM) | 0.807 | 919 |
| PA-1 (ovary, adherent, top dose 2.5 µM) | 0.636 | 338 |
| PA-TU-8902 (pancreas, adherent, top dose 2.5 µM) | 0.934 | > 2500 |
| PA-TU-8988T (pancreas, adherent, top dose 2.5 µM) | 0.95 | > 2500 |
| PANC-02-03 (pancreas, adherent, top dose 2.5 µM) | 0.806 | 1580 |
| PANC-03-27 (pancreas, adherent, top dose 2.5 µM) | 0.756 | 803 |
| PANC-04-03 (pancreas, adherent, top dose 2.5 µM) | 0.975 | > 2500 |
| PANC-08-13 (pancreas, adherent, top dose 2.5 µM) | 0.796 | 1560 |
| PANC-10-05 (pancreas, adherent, top dose 2.5 µM) | 0.808 | 1770 |

| Cell Line | AUC | IC50 [nM] |
| --- | --- | --- |
| PC-3 (prostate, adherent, top dose 2.5 µM) | 0.945 | > 2500 |
| PC-3 [JPC-3] (lung adenocarcinoma, adherent, top dose 2.5 µM) | 0.43 | 94.7 |
| PC-14 (lung adenocarcinoma, adherent, top dose 2.5 µM) | 0.453 | 118 |
| PCI-4B (head and neck, adherent, top dose 2.5 µM) | 0.584 | 261 |
| PCI-6A (head and neck, adherent, top dose 2.5 µM) | 0.805 | 1230 |
| PCI-15A (head and neck, adherent, top dose 2.5 µM) | 0.818 | 1420 |
| PCI-30 (head and neck, adherent, top dose 2.5 µM) | 0.956 | > 2500 |
| PCI-38 (head and neck, adherent, top dose 2.5 µM) | 0.954 | > 2500 |
| PE/CA-PJ15 (head and neck, adherent, top dose 2.5 µM) | 0.836 | 1860 |
| PEO1 (ovary, adherent, top dose 2.5 µM) | 0.982 | > 2500 |
| PF-382 (T-cell lymphoblastic leukaemia, suspension, top dose 20 µM) | 0.208 | 200 |
| PFSK-1 (medulloblastoma, adherent, top dose 2.5 µM) | 0.926 | > 2500 |
| PL4 (pancreas, adherent, top dose 2.5 µM) | 0.985 | > 2500 |
| PL18 (pancreas, adherent, top dose 2.5 µM) | 0.98 | > 2500 |
| PL-21 (acute myeloid leukaemia, suspension, top dose 2.5 µM) | 0.755 | 974 |
| PSN1 (pancreas, adherent, top dose 2.5 µM) | 0.919 | > 2500 |
| QGP-1 (pancreas, adherent, top dose 2.5 µM) | 0.941 | > 2500 |
| QIMR-WIL (acute myeloid leukaemia, suspension, top dose 2.5 µM) | 0.669 | 454 |
| RC-K8 (B-cell lymphoma, suspension, top dose 2.5 µM) | 0.993 | > 2500 |
| RCC10RGB (kidney, adherent, top dose 2.5 µM) | 0.885 | > 2500 |
| RCC-AB (kidney, adherent, top dose 2.5 µM) | 0.59 | 297 |

| Cell Line | AUC | IC50 [nM] |
| --- | --- | --- |
| RCC-ER (kidney, adherent, top dose 2.5 µM) | 0.926 | > 2500 |
| RCC-FG2 (kidney, adherent, top dose 2.5 µM) | 0.863 | > 2500 |
| RCC-JF (kidney, adherent, top dose 2.5 µM) | 0.518 | 175 |
| RCC-JW (kidney, adherent, top dose 2.5 µM) | 0.728 | 708 |
| RCC-MF (kidney, adherent, top dose 2.5 µM) | 0.772 | 1260 |
| RCM-1 (large intestine, adherent, top dose 2.5 µM) | 0.949 | > 2500 |
| RD (rhabdomyosarcoma, adherent, top dose 2.5 µM) | 0.968 | > 2500 |
| REH (B-cell leukaemia, suspension, top dose 2.5 µM) | 0.67 | 456 |
| RERF-GC-1B (stomach, adherent, top dose 2.5 µM) | 0.899 | > 2500 |
| RERF-LC-KJ (lung adenocarcinoma, adherent, top dose 2.5 µM) | 0.954 | > 2500 |
| RERF-LC-MS (lung adenocarcinoma, adherent, top dose 2.5 µM) | 0.97 | > 2500 |
| RERF-LC-Sq1 (lung squamous cell carcinoma, adherent, top dose 2.5 µM) | 0.92 | > 2500 |
| RF-48 (stomach, adherent, top dose 2.5 µM) | 0.903 | > 2500 |
| RH-1 (rhabdomyosarcoma, adherent, top dose 2.5 µM) | 0.903 | 2340 |
| RH-41 (rhabdomyosarcoma, adherent, top dose 2.5 µM) | 0.983 | > 2500 |
| RKN (ovary, adherent, top dose 2.5 µM) | 0.707 | 621 |
| RKO (large intestine, adherent, top dose 20 µM) | 0.587 | 2120 |
| RL95-2 (endometrium, adherent, top dose 2.5 µM) | 0.973 | > 2500 |
| RL (B-cell lymphoma, suspension, top dose 2.5 µM) | 0.93 | > 2500 |
